Laboratory results: US8158586B2, “Inhibitors of protein kinases and uses thereof” (priority 2005, dated 2012)
Values joined by “and” are separate entries in the source; they are usually repeats but may differ in a detail not shown here. Identical values can stand only once. At least one compound was matched to its structure with a doubt left. Some entries repeat one wording, which the source may state once for all of them. Some results were stated once for a whole list of compounds, not compound by compound. Residues, ends and D or L forms follow the SMILES beside them. *: point of attachment. PNA(A) = NCCN(CC(=O)*)C(=O)Cn1cnc2c(N)ncnc21

Tests used:
STAT-3 = STAT-3 phosphorylation (Ser727, Tyr 705) in IL-6 treated U-251 cells, immunocytochemistry; type: cell-based, human; conditions: 5 mM loading
[1] = test system: PKCα expression in LS180 colon cancer cells; assay: Expression of PKCα in LS180 cells, flow cytometry; type: cell-based; conditions: LS180; doxorubicin 50 ng/mL; tested concentration
[2] = test system: IMR-32 neuroblastoma cell line; assay: Cell death at 24 h after pinocytic loading, IMR32; type: cell-based, human
[3] = test system: DU-145 prostate cancer cell line; assay: Cell death at 24 h after pinocytic loading, Du145; type: cell-based
[4] = test system: LNCap prostate cancer cell line; assay: Cell death at 24 h after pinocytic loading, LnCAP; type: cell-based
[5] = test system: MRP-1 expression in H-661 NSCLC cells; assay: MRP-1 expression in H-661 NSCLC cells, flow cytometry; type: cell-based; conditions: compound 5 μM
H-661 NSCLC cells = assay: Rhodamine influx and efflux in H-661 NSCLC cells; type: cell-based; conditions: exogenous treatment, lowest concentration
Protocol: (§1) The amount of rhodamine influx and efflux following treatment of LS180 colon cancer cells and H-661 NSCLC cells with the PKI compounds was also investigated. The measurement of rhodamine efflux and influx is a common procedure that provides a quantitative estimation of the level of multidrug resistance due to typical MDR and non-P-gp MDR. Both exogenous treatment using 5 μg/mL of the PKI compounds provided at the same time as doxorubicin, and endogenous incorporation, in which a single dose of 5 mM was used with the standard pinocytic endocytosis protocol, were investigated.
(§2) The MDR-1 pump functions only as an efflux pump, however, it modulates the cell entry of rhodamine (that can diffuse through the membrane). Upon toxicant exposure, rhodamine accumulates in the cells. Ratios of rhodamine fluorescence in doxorubicin exposed versus untreated controls (CT) are lower if the pump is inhibited.

[6] = test system: T-24 bladder cancer cell line; assay: Cell death at 24 h after pinocytic loading, T24; type: cell-based
[7] = test system: Pgp expression in H-661 NSCLC cells; assay: Pgp expression in H-661 NSCLC cells, flow cytometry; type: cell-based; conditions: compound 5 μM
[8] = test system: U-251 glioblastoma cell line; assay: Cell death at 24 h after pinocytic loading, U251; type: cell-based, human
[9] = test system: LS-180 colon cancer cell line; assay: Cell death at 24 h after pinocytic loading, LS180; type: cell-based
LS180 colon cancer cells = assay: Rhodamine influx and efflux in LS180 colon cancer cells; type: cell-based; conditions: exogenous treatment, doxorubicin exposure
Protocol: as §1, §2

[10] = test system: MCF-7 breast cancer cell line; assay: Cell death at 24 h after pinocytic loading, MCF-7; type: cell-based
pERK1/2 = pERK1/2 in serum-stimulated IMR-32 neuroblastoma cells, immunofluorescence (indirect MEK1/2); type: cell-based, human; conditions: 5 mM loading, control stimulated 105.3, control starved 59.5
[11] = test system: H-661 non-small cell lung cancer cell line; assay: Cell death at 24 h after pinocytic loading, H661; type: cell-based
[12] = test system: MDA-MB-231 breast cancer cell line; assay: Cell death at 24 h after pinocytic loading, MDA-MB-231; type: cell-based
MDA-MB-231 cells = assay: Invasion of MDA-MB-231 cells through Matrigel matrix; type: cell-based
[13] = test system: MRP-1 expression in LS180 colon cancer cells; assay: MRP-1 expression in LS180 colon cancer cells, flow cytometry; type: cell-based
[14] = test system: PKCα expression in H-661 NSCLC cells; assay: Expression of PKCα in H-661 cells, flow cytometry; type: cell-based
Protocol: The effect of compounds 1 to 10 on doxorubicin-induced expression of PKCα in LS180 colon cancer cells and H-661 NSCLC cells was investigated. Cells were exposed to doxorubicin (50 ng/mL) for 3 days prior to exogenous treatment with the PKI compounds at a concentration of 5 μM. Results were acquired by flow cytometry after labelling of the cells with the PKC-alpha #sc 208 antibody.
The protocol used for fixing the cells for flow cytometry is as follows. A minimum of 1.0×10^6 cells was used in each instance. Cells were trypsinized and spun down at 1,000/5 min at 4° C. All the medium was removed and the cells resuspended in 500 μl of 1×PBS, pH 7.1. The cell suspension was added into 5 mls of 1% paraformaldehyde/PBS on ice and fixed for 15 min on ice. Cells were then centrifuged at 1,000/5 min and resuspended in 10 mls of 1×PBS. Cells were centrifuged again at 1,000/5 min and resuspended in 2 mls of 70% ETOH and kept at −20° C. until needed (up to 1 week). At which time, 2 mls of 1×PBS containing 1% BSA/0.02% NaN3 was added to each tube and the cells were left on ice for 5 min to give the cells time to rehydrate. Cells were then centrifuged at 1,000/5 min and the ETOH/PBS mix removed. The cells were resuspended in 5 mls of 1×PBS and allowed to sit on ice for 5 min. This step was repeated once, then the cells were centrifuged at 1,000/5 min and resuspended in 1 ml of 1×PBS containing 1% BSA/0.02% NaN3 and 5% serum. Blocking was conducted for 30 min at room temperature with inversion every 10 min, then the primary antibody was added directly to each cell tube at the desired concentration and incubated for 1 hr at room temperature inverting every 10 min. Cells were centrifuged at 1,000/5 min, the primary antibody removed and the cells resuspended in 5 mls of 1×PBS. This step was repeated once. Cells were centrifuged at 1,000/5 min and resuspended in 1 ml of 1×PBS w/1% BSA and 0.02% NaN3 (that contains 5% serum) and the secondary antibody was added. Tubes were protected from the light and incubated for 1 hr at room temperature inverting every 10 min. Cells were then centrifuged at 1,000/5 min, the secondary antibody removed and the cells resuspended in 5 mls of 1×PBS. This step was repeated once and then the cells were centrifuged at 1,000/5 min and resuspended in 1 ml of 1×PBS w/1% BSA and 0.02% NaN3 (with the 5% serum added). Tubes were kept on ice until needed for flow cytometry.

[15] = test system: Pgp expression in LS180 colon cancer cells; assay: Pgp expression in LS180 colon cancer cells, flow cytometry; type: cell-based
[16] = test system: SKOV-3 ovarian cancer cell line; assay: Cell death at 24 h after pinocytic loading, SKOV-3; type: cell-based
Bcl-2 = assay: Bcl2 sublocalization, immunolabelling; type: cell-based

## CC(=O)N[C@@H](CCCCN)C(=O)N[C@@H](CC(C)C)C(=O)N[C@@H](CCCCN)C(=O)N[C@@H](CCCCN)C(=O)N[C@@H](C)C(=O)N[C@@H](CCCCNC(=O)CN(CCN)C(=O)Cn1cnc2c(N)ncnc21)C(=O)N[C@@H](CC(C)C)C(=O)NCC(=O)N[C@@H](CC(C)C)C(N)=O [Compound 9] (Ac-KLKKAK(PNA(A))LGL-NH2; N-terminus and C-terminus assumed)
STAT-3; pSTAT3 Ser727, control 70.15
  Anti-Serine Antibody FL Density: 89.48
STAT-3; pSTAT3 Tyr 705, control 43
  Anti-Tyrosine Antibody FL Density: 29.67
[1]
  PKCα expression, cells exposed to doxorubicin: repressed the enzyme expression
[2]; 5 mM
  Percentage Cell Death at 24 h, IMR32: 5%
[2]; 10 mM
  Percentage Cell Death at 24 h, IMR32: 17%
[3]; 5 mM
  Percentage Cell Death at 24 h, Du145: 36%
[3]; 10 mM
  Percentage Cell Death at 24 h, Du145: 43%
[4]; 5 mM
  Percentage Cell Death at 24 h, LnCAP: 15%
[4]; 10 mM
  Percentage Cell Death at 24 h, LnCAP: 23%
[5]
  Cells expressing MRP-1, +Doxorubicin (A): 41.88% and 30.3%
  Cells expressing MRP-1, No Doxorubicin (B): 3.64% and 1.93%
  MRP-1 Ratio A/B: 11.5 and 15.7
H-661 NSCLC cells
  reduction of rhodamine influx: 27%
[6]; 5 mM
  Percentage Cell Death at 24 h, T24: 12%
[6]; 10 mM
  Percentage Cell Death at 24 h, T24: 17%
[7]
  Cells expressing Pgp, +Doxorubicin (A): 50.48% and 25.28%
  Cells expressing Pgp, No Doxorubicin (B): 2.78% and 1.26%
  Pgp Ratio A/B: 18.2 and 20.1
[8]; 5 mM
  Percentage Cell Death at 24 h, U251: 11%
[8]; 10 mM
  Percentage Cell Death at 24 h, U251: 29%
[9]; 5 mM
  Percentage Cell Death at 24 h, LS180: 24%
[9]; 10 mM
  Percentage Cell Death at 24 h, LS180: 44%
[9]; short term, 24 h
  cell death induced in colon cancer cell line LS-180: very sensitive to cell death
LS180 colon cancer cells
  rhodamine efflux, pump activity: effective in limiting the pump activity
[10]; 5 mM
  Percentage Cell Death at 24 h, MCF-7: 31%
[10]; 10 mM
  Percentage Cell Death at 24 h, MCF-7: 56%
pERK1/2
  pERK1/2 FL Density: 91.4
[11]; 5 mM
  Percentage Cell Death at 24 h, H661: 8%
[11]; 10 mM
  Percentage Cell Death at 24 h, H661: 8%
[12]; 5 mM
  Percentage Cell Death at 24 h, MDA-MB-231: 34%
[12]; 10 mM
  Percentage Cell Death at 24 h, MDA-MB-231: 40%
MDA-MB-231 cells; % invasion in control cells minus % invasion in treated cells
  % Inhibition of Invasion: 6.5%
MDA-MB-231 cells; MDA-MB-231
  % Invasion: 39.9%
  No. Cells Invading Matrigel Insert: 40.6
  No. Cells Migrating through Control Insert: 101.7
[13]; cells exposed to doxorubicin
  MRP-1 expression: inhibited MRP-1 expression
[13]; compound 5 μM
  Cells expressing MRP-1, No Doxorubicin (B): 5.73% and 4.98%
[13]; without doxorubicin
  basal expression of MRP-1: lower values than that of the controls
[14]
  reduction in PKCα intracellular content, cells exposed to doxorubicin: ≤ 50%
[14]; 5 μM
  expression of PKCα, without doxorubicin: did not have any effect
[15]; compound 5 μM
  Cells expressing Pgp, +Doxorubicin (A): 18.2% and 9.71%
  Cells expressing Pgp, No Doxorubicin (B): 4.3% and 5.67%
[15]; without doxorubicin
  P-gp basal expression: decreased the basal expression to a variable extent
[16]; 5 mM
  Percentage Cell Death at 24 h, SKOV-3: 21%
[16]; 10 mM
  Percentage Cell Death at 24 h, SKOV-3: 22%
Bcl-2; control 0
  Bcl2 label intensity, Perinuclear: 0
Bcl-2; control 1
  Bcl2 label intensity, Cytoplasmic: 1
Bcl-2; control 2
  Bcl2 label intensity, Nuclear: 0.5
